This note sets out measurements from the RNAGym collection of RNA variant scans (doi:10.1093/nar/gkz1192).

The labels stand for the following.
B1: CPEB3 Ribozyme (parent)
chain: UAACAGGGGGCCACAGCAGAAGCGUUCACGUCGCAGCCCCUGUCAGAUUCUGGUGAAUCUGCGAAUUCUGCUGUAUAUCUC

The source gives no read counts; variants with many changes may rest on few reads.

Variants of B1 are the subject of this series. The experiment in a line: self-cleavage, relative activity (ratio to wild type); higher = more cleavage; in vitro, sequencing. A digest of the protocol: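 After error-prone PCR and barcoding, CPEB3 ribozyme mutant libraries were transcribed with T7 RNA polymerase at 37°C for 5 hours, then given 15 min with DNase I before an EDTA stop, and they cleaved during both steps. Reverse transcription with template switching preceded Illumina sequencing. Relative activity divides a variant's cleaved/total read fraction by the unmutated ribozyme's. At least 5 reads were required per variant, and three batches were averaged.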
In the case of U43C U48C U74C, the self-cleavage stood at 0.22. For U43A A56G U60C C62U, the self-cleavage was 0.24. U43A A56C U60G: the self-cleavage was found to be 0.21. Turning to A45G A47G A56C A57G U76C, the self-cleavage was determined as 0.08.

As for U41A U66C U74A, the self-cleavage was determined as 0.05. Take U41A U49C U54C U60A U72C: the self-cleavage came to 0.13. Consider U41C U43C U60A U66C, for which the self-cleavage is 0.13.

Turning to U43G U49A A77G, the self-cleavage worked out at 0.36. The same measure for U41G U51A U76C: 0.27; for U41A A56G C62U A77U: 0.16; for U43C U60C U78C: 0.18.

A45C A47U U51G: the self-cleavage came out at 0.15. With U41C A47G A56G U72A the figure was 0.77. Regarding U43A G61C A65U U72A, the self-cleavage was 0.39. Turning to U41A U76A U78A, the self-cleavage worked out at 0.54. With A45G U67C U80C the figure was 0.39. Regarding A45C U66C U69C, the self-cleavage came to 0.16. For the variant A45G G52U U72C U80C, the self-cleavage was determined as 1.22. Turning to A45G U76C U78G, the self-cleavage came out at 0.72. Consider U43A A65C U78C, for which the self-cleavage turned out to be 0.14. For the variant U41G U49C G55C U58C, the self-cleavage amounted to 0.16. U43A U51A A64U: the self-cleavage came to 0.48. With U43C A57G A65G U67G U72C the figure was 0.13; with A45G U54G A64U U69A, 0.34. As for U43C A64G U76C, the self-cleavage is 0.57. On to U41C U67C U69C, for which the self-cleavage worked out at 0.52.

For the variant G42A U51C A57G U58G, the self-cleavage turned out to be 0.13.

For the variant A45U G73A U78C, the self-cleavage is 1.24. For A45G A47G U51A, the self-cleavage was determined as 1.01.

On to U43A U51C A57G U67C U74C, for which the self-cleavage was 0.39.

In the case of A45G U74C U80A, the self-cleavage worked out at 1.21. U41A A64G U72A: the self-cleavage was found to be 0.23.

In the case of C44A A57G U78C, the self-cleavage came out at 0.23.

For U43C U54C A64G U78C, the self-cleavage came to 0.13. As for A45G U51G U72C U74C, the self-cleavage is 0.96. Regarding U41A U48C G61U, the self-cleavage amounted to 0.14. As for U43A U49C A64G U72C, the self-cleavage came out at 0.21. With U43A A64U U78C the figure was 0.37. Turning to U43A A45U G53A U60C A64G, the self-cleavage came out at 0.25. As for U41C U74G U80G, the self-cleavage is 1.02. The same measure for U41A U49G A57G: 0.36; for U41A U43G A57G: 0.28.

On to U41A U67A A75G, for which the self-cleavage turned out to be 0.04.

As to U41C U54C A57G A65U C79U, the self-cleavage is 0.12. In the case of A45U A56G A57C A64U U76C, the self-cleavage was determined as 0.13. The same measure for U41C U51C U60A: 0.44; for A45G U74C A75G: 0.83.

In the case of U41C A45G U49C U74C, the self-cleavage came to 0.35. With U43C A56G U74A, the self-cleavage turned out to be 0.68. Turning to A45G A47C U69C U74A, the self-cleavage came to 0.21. Take G42A A64G U66C U69A: the self-cleavage was determined as 0.07.

As to U43A G55C U78A, the self-cleavage came out at 1.16. In the case of A45G U58A U72A, the self-cleavage is 0.28.

For the variant U41A A57U C68A A75U, the self-cleavage came out at 0.06. A45U C50A G52A: the self-cleavage is 0.28.

For the variant U41A U60G A77U, the self-cleavage was 0.14. Take U43A U69A A77U: the self-cleavage came to 1.03. As to U41A U66C U72C, the self-cleavage is 0.24.

As for A45G G46U A56U U72C, the self-cleavage was 0.07. With U43C U51C A57C, the self-cleavage came out at 0.36. U43A A47G A56G: the self-cleavage was found to be 0.64. Turning to U41C A45U A65G, the self-cleavage came out at 0.28. With U41C G63U A64G U69C, the self-cleavage was determined as 0.26. On to U41A U51G A64U, for which the self-cleavage is 0.12.

Regarding U41A U48C U58A U60A, the self-cleavage was 0.08. For U43C A47G U78A U80C, the self-cleavage was determined as 0.39. Consider U41A U60C A64U, for which the self-cleavage was found to be 0.2. The same measure for U41G G46C U49C U69A: 0.12. Turning to A45G U48A A57G C59U U60C U72C, the self-cleavage is 0.11. With U41G A57G C62G, the self-cleavage came to 0.14. With G42A A45G U76C C79U the figure was 0.16. Turning to U41C U60C U67A U78C, the self-cleavage is 0.3.

Consider A45G C68A U74C, for which the self-cleavage turned out to be 0.33. As to U43G U48A U51C A56G, the self-cleavage amounted to 0.18. With U41A G46A A75G the figure was 0.16. Regarding U41C A45G G46A A47G U60A, the self-cleavage was determined as 0.1.

Regarding A45G U66C A75G, the self-cleavage is 0.08. The same measure for U41C C50A U67C: 0.24; for G42A U51A U72C: 0.22; for A45G U49G G55A U60C: 0.83. As for U43C A64G U78C, the self-cleavage worked out at 0.51. With U43C A47G C62A, the self-cleavage stood at 0.26. With C44A U49C U54A U72C, the self-cleavage was 0.18.

Turning to U41A U43C A56U U72C, the self-cleavage stood at 0.17.

U41C U43C U60A: the self-cleavage worked out at 0.2. Consider U43C A47G A56G U69A, for which the self-cleavage stood at 0.09. In the case of U43A A64G U69C U72C, the self-cleavage is 0.31. The same measure for A45C U67C U69C: 0.54; for U43A A45U U67C: 0.23; for U41A U48C A65G: 0.14.

With A45G U54C A65U, the self-cleavage was determined as 0.39. With A45G U58C U67C U80C the figure was 0.3; with U41A G42U G63U, 0.27; with U41C C62G U72C U78C, 0.13. As for U41A A57G U72A U80C, the self-cleavage is 0.04. In the case of A45G A56U A75G, the self-cleavage is 0.37. With A45U A47G U60A A77G, the self-cleavage is 1.01.

Regarding U41C A45U A47G U54G U69C A75G, the self-cleavage was 0.05.

Consider A45U C71G U72A, for which the self-cleavage is 0.13. Consider A45G U51A A56G U66C U69A U80C, for which the self-cleavage was 0.15. Consider U41C U54A U69G, for which the self-cleavage came out at 0.85. In the case of U43G A45G A56U, the self-cleavage was found to be 0.1. U41A U51C U69C U80A: the self-cleavage is 0.18. As to U41C C59U U69A, the self-cleavage worked out at 0.52. The same measure for G42C U60C U67A: 0.12; for A45G U49C U58C: 0.07; for U43C A57U U78C: 0.14. Consider U41C U72A U78C, for which the self-cleavage worked out at 1.14.

For the variant U41A U43C U60G A77G, the self-cleavage worked out at 0.1. With U41C A56C U58C the figure was 0.19; with U41C A64U C71G U78G, 0.16; with U41C A56U C62G, 0.2. As to U43A U48A U51C, the self-cleavage was 0.81. On to U41C U60A A75G, for which the self-cleavage came to 0.58. As to A45G U54A A64G U69C, the self-cleavage worked out at 0.35. With U41C A45U A64G U72C the figure was 0.32; with C44U U48C U49G A56G U74A, 0.05. C44U A65G U78C: the self-cleavage turned out to be 0.16. As for A45G U51C A56G U67C, the self-cleavage stood at 0.14. In the case of A45U A65U U72C U78C, the self-cleavage was 0.42. With U41C U43A C44U C62A the figure was 0.29. Regarding U41A U54C A77U, the self-cleavage came out at 0.22. Take U43C C44U C62U U67C: the self-cleavage worked out at 0.06.

U41A U58C U60C A64G: the self-cleavage is 0.09. As to U41C U49A U51A U58C A77G, the self-cleavage was found to be 0.17.

Turning to U43C G46U U51A, the self-cleavage came out at 0.17. Take U43A U48C A56G U72A U80G: the self-cleavage worked out at 0.2. With U43C A56G G63U the figure was 0.6. On to U41A U49C U72A, for which the self-cleavage amounted to 0.38. Regarding U43A U51A A56G, the self-cleavage turned out to be 0.4. Take U41C A57G U60A U67A: the self-cleavage is 0.39.

Consider U41A A56U U66C, for which the self-cleavage came out at 0.12.

For U41C U43C U60A U67C, the self-cleavage was 0.06.

As for U41C U60C U74C, the self-cleavage was 0.97.

In the case of G42A A57G U72A, the self-cleavage turned out to be 0.36. As to U41A A64U U69C U78C, the self-cleavage stood at 0.2. On to U41C G63C U78A C81U, for which the self-cleavage is 1.04. As for U43C U60C U72C U78C, the self-cleavage was 0.13. Consider U41C A56G A57G A64G, for which the self-cleavage was determined as 0.31. The same measure for A45U A77C U80C: 0.35; for U41A U51A A56G: 0.1; for U41C U69A C81U: 0.97.

For U43A U60A U69A, the self-cleavage turned out to be 0.34. For the variant U43C U60A U69C C71G, the self-cleavage is 0.13. Consider A45G U48A U76A, for which the self-cleavage amounted to 0.14. Regarding U43A A47G A56G U80A, the self-cleavage was 0.84. On to U41C A45U G52A U67A, for which the self-cleavage was found to be 0.42.

Turning to U43A A56G U74C U80C, the self-cleavage is 1.06. In the case of U43A U48C G61A, the self-cleavage was 0.25. Take U41C U48A U51C U66C U67A: the self-cleavage was 0.44. As for U41A U69A A77G, the self-cleavage amounted to 0.14. For U41G U49C A56U U69C, the self-cleavage came out at 0.2. The same measure for A45G A75G U78G: 1.16. G42A U48C G70A U72A: the self-cleavage was 0.12.

As for U41C U58C U66C U69C, the self-cleavage was found to be 0.22. For the variant U41A U60A U67C G73A, the self-cleavage was found to be 0.43. On to U41A A65G U74C, for which the self-cleavage was determined as 0.16. Consider U43C U54G U78A, for which the self-cleavage worked out at 0.63. The same measure for A45G G70A U78C: 0.54; for U41C A57G U60C: 0.51; for U43A C59U G61A A75G: 0.2. With U43C U54G A56G U80A the figure was 0.25; with U41A A57G U72A U74A, 0.25. Regarding A45G U54A A56U U66C, the self-cleavage stood at 0.11.

In the case of A45G U49C U60A, the self-cleavage came to 0.17. A45G A47U U51C A65G A75G: the self-cleavage was 0.13.

Consider U41C U43G A64U, for which the self-cleavage was found to be 0.08.
